Reference: the supplement of paper PMC8728848
The other results are listed elsewhere or left out.

Assays:
Test in all cases: glycan array binding signal (z-score within array); higher = stronger binding
Settings in all cases: glycan notation: IUPAC condensed, linker removed
[1] = biological target: Neu5Ac(a2-6)Gal(b1-4)GlcNAc(b1-6)[Gal(b1-3)GlcNAc(b1-3)]Gal(b1-4)Glc
Procedure, shortened: (§1)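 Glycan array binding is given as a within-array Z-score, which can be read as non-binding when negative. The arrays, 3228 of them, came from the Consortium for Functional Glycomics database and were retained only where the protein sequence was available. Z-scores were averaged across arrays of the same protein sequence at different concentrations or buffers and across linkers.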

[2] = biological target: Neu5Ac(a2-6)Gal(b1-4)GlcNAc(b1-6)[Gal(b1-3)]GalNAc
Procedure, shortened: as §1

[3] = biological target: Neu5Ac(a2-6)Gal(b1-4)GlcNAc6S
Procedure, shortened: as §1

[4] = biological target: Neu5Ac(a2-6)GalNAc
Procedure, shortened: as §1

[5] = biological target: Neu5Ac(a2-6)GalNAc(b1-4)GlcNAc
Procedure, shortened: as §1

[6] = biological target: Neu5Ac(a2-6)GalNAc(b1-4)GlcNAc6S
Procedure, shortened: as §1

[7] = biological target: Neu5Ac(a2-6)GlcNAc(b1-4)GlcNAc
Procedure, shortened: as §1

[8] = biological target: Neu5Ac(a2-6)GlcNAc(b1-4)GlcNAc(b1-4)GlcNAc
Procedure, shortened: as §1

[9] = biological target: Neu5Ac(a2-8)Neu5Ac
Procedure, shortened: as §1

[10] = biological target: Neu5Ac(a2-8)Neu5Ac(a2-3)Gal(b1-3)GalNAc(b1-4)[Neu5Ac(a2-3)]Gal(b1-4)Glc
Procedure, shortened: as §1

[11] = biological target: Neu5Ac(a2-8)Neu5Ac(a2-3)Gal(b1-3)GalNAc(b1-4)[Neu5Ac(a2-8)Neu5Ac(a2-3)]Gal(b1-4)Glc
Procedure, shortened: as §1

[12] = biological target: Neu5Ac(a2-8)Neu5Ac(a2-3)Gal(b1-4)Glc
Procedure, shortened: as §1

[13] = biological target: Neu5Ac(a2-8)Neu5Ac(a2-3)Gal(b1-4)GlcNAc
Procedure, shortened: as §1

[14] = biological target: Neu5Ac(a2-8)Neu5Ac(a2-3)[Gal(b1-3)GalNAc(b1-4)]Gal(b1-4)Glc
Procedure, shortened: as §1

[15] = biological target: Neu5Ac(a2-8)Neu5Ac(a2-3)[GalNAc(b1-4)]Gal(b1-4)Glc
Procedure, shortened: as §1

[16] = biological target: Neu5Ac(a2-8)Neu5Ac(a2-8)Neu5Ac
Procedure, shortened: as §1

[17] = biological target: Neu5Ac(a2-8)Neu5Ac(a2-8)Neu5Ac(a2-3)Gal(b1-4)Glc
Procedure, shortened: as §1

[18] = biological target: Neu5Ac(a2-8)Neu5Ac(a2-8)Neu5Ac(a2-3)[Gal(b1-3)GalNAc(b1-4)]Gal(b1-4)Glc
Procedure, shortened: as §1

[19] = biological target: Neu5Ac(a2-8)Neu5Ac(a2-8)Neu5Ac(a2-3)[GalNAc(b1-4)]Gal(b1-4)Glc
Procedure, shortened: as §1

[20] = biological target: Neu5Ac(a2-8)Neu5Ac(a2-8)Neu5Ac(a2-8)Neu5Ac(a2-3)[GalNAc(b1-4)]Gal(b1-4)Glc
Procedure, shortened: as §1

[21] = biological target: Neu5Ac(a2-8)Neu5Gc(a2-3)Gal(b1-4)GlcNAc
Procedure, shortened: as §1

[22] = biological target: Neu5Ac(b2-6)Gal(b1-4)GlcNAc
Procedure, shortened: as §1

[23] = biological target: Neu5Ac(b2-6)GalNAc
Procedure, shortened: as §1

[24] = biological target: Neu5Ac9Ac(a2-3)Gal(b1-3)GlcNAc
Procedure, shortened: as §1

[25] = biological target: Neu5Ac9Ac(a2-3)Gal(b1-4)GlcNAc
Procedure, shortened: as §1

[26] = biological target: Neu5Ac9Ac(a2-6)Gal(b1-4)GlcNAc
Procedure, shortened: as §1

[27] = biological target: Neu5Gc(a2-3)Gal(b1-3)GlcNAc
Procedure, shortened: as §1

[28] = biological target: Neu5Gc(a2-3)Gal(b1-3)[Fuc(a1-4)]GlcNAc
Procedure, shortened: as §1

[29] = biological target: Neu5Gc(a2-3)Gal(b1-4)Glc
Procedure, shortened: as §1

[30] = biological target: Neu5Gc(a2-3)Gal(b1-4)GlcNAc
Procedure, shortened: as §1

[31] = biological target: Neu5Gc(a2-3)Gal(b1-4)GlcNAc(b1-3)Gal(b1-4)GlcNAc(b1-2)Man(a1-3)[Neu5Gc(a2-3)Gal(b1-4)GlcNAc(b1-3)Gal(b1-4)GlcNAc(b1-2)Man(a1-6)]Man(b1-4)GlcNAc(b1-4)GlcNAc
Procedure, shortened: as §1

[32] = biological target: Neu5Gc(a2-3)Gal(b1-4)[Fuc(a1-3)]GlcNAc
Procedure, shortened: as §1

[33] = biological target: Neu5Gc(a2-6)Gal(b1-4)GlcNAc
Procedure, shortened: as §1

[34] = biological target: Neu5Gc(a2-6)GalNAc
Procedure, shortened: as §1

[35] = biological target: Neu5Gc(a2-8)Neu5Ac(a2-3)Gal(b1-4)GlcNAc
Procedure, shortened: as §1

[36] = biological target: Neu5Gc(a2-8)Neu5Gc(a2-3)Gal(b1-4)GlcNAc
Procedure, shortened: as §1

[37] = biological target: Neu5Gc(a2-8)Neu5Gc(a2-3)Gal(b1-4)GlcNAc(b1-3)Gal(b1-4)GlcNAc
Procedure, shortened: as §1

[38] = biological target: Neu5Gc(a2-8)Neu5Gc(a2-6)Gal(b1-4)GlcNAc
Procedure, shortened: as §1

[39] = biological target: Neu5Gc(b2-6)Gal(b1-4)GlcNAc
Procedure, shortened: as §1

B1: LSL-150 (Laetiporus sulphureus), Q7Z8V1 (protein)
chain: MTDIYIPPEGLYFRLLGFASRQVIFARNSPSPDVGLSPVNDQATDQYFSLIYGTGEHAGLYAIKSKATGKVLFSRRPAEPYVGQIDGDGRYPDNWFKIEPGKTYLSKYFRLVQPSTGTALVSRTHLQPYFWNHPQTEVFDDQYFTFLFEDHHHHHH
glycan array binding signal (z-score) [1]: -0.207 | glycan array binding signal (z-score) [2]: -0.194 | glycan array binding signal (z-score) [3]: -0.203 | glycan array binding signal (z-score) [4]: -0.206 | glycan array binding signal (z-score) [5]: -0.207 | glycan array binding signal (z-score) [6]: -0.21 | glycan array binding signal (z-score) [7]: -0.208 | glycan array binding signal (z-score) [8]: -0.209 | glycan array binding signal (z-score) [9]: -0.2 | glycan array binding signal (z-score) [10]: -0.202 | glycan array binding signal (z-score) [11]: -0.193 | glycan array binding signal (z-score) [12]: -0.205 | glycan array binding signal (z-score) [13]: -0.204 | glycan array binding signal (z-score) [14]: -0.195 | glycan array binding signal (z-score) [15]: -0.209 | glycan array binding signal (z-score) [16]: -0.21 | glycan array binding signal (z-score) [17]: -0.206 | glycan array binding signal (z-score) [18]: -0.209 | glycan array binding signal (z-score) [19]: -0.203 | glycan array binding signal (z-score) [20]: -0.201 | glycan array binding signal (z-score) [21]: -0.21 | glycan array binding signal (z-score) [22]: -0.208 | glycan array binding signal (z-score) [23]: -0.212 | glycan array binding signal (z-score) [24]: -0.208 | glycan array binding signal (z-score) [25]: -0.21 | glycan array binding signal (z-score) [26]: -0.207 | glycan array binding signal (z-score) [27]: -0.213 | glycan array binding signal (z-score) [28]: -0.207 | glycan array binding signal (z-score) [29]: -0.205 | glycan array binding signal (z-score) [30]: -0.207 | glycan array binding signal (z-score) [31]: -0.003 | glycan array binding signal (z-score) [32]: -0.208 | glycan array binding signal (z-score) [33]: -0.206 | glycan array binding signal (z-score) [34]: -0.207 | glycan array binding signal (z-score) [35]: -0.202 | glycan array binding signal (z-score) [36]: -0.211 | glycan array binding signal (z-score) [37]: -0.196 | glycan array binding signal (z-score) [38]: -0.206 | glycan array binding signal (z-score) [39]: -0.203
